Data published in PubChem BioAssay (NCI).
“And” between values parts separate entries of the source, which are not always exact repeats. Identical values can stand only once.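 Dose response: 5 concentrations. Exposure: 48 h. Format: 96-well plates. Endpoint: linear interpolation; highest concentration if not reached. The concentration for 50% growth inhibition is given as GI50. Definition used: TGI = concentration required for complete inhibition of growth.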 Square brackets hold non-standard residues; d marks the D form. Peptide text beside a SMILES is read from it. * marks the point of attachment. Phe(4-NO2) = N[CH](Cc1ccc([N+](=O)[O-])cc1)C(=O)O; Boc = CC(C)(C)OC(=O)*

Test system: NCI-H322M lung
Test: NCI tumour cell line growth inhibition, 48 h

| SMILES | TGI | GI50 |
| --- | --- | --- |
| O=C(CSc1nc2ccc(I)cc2c(=O)n1Cc1ccccc1)NN1C(=O)c2ccccc2C1=O | 75.5 µM |  |
| O=c1c2cc(S(=O)(=O)Nc3ccc(Cl)cc3Cl)ccc2ncn1NS(=O)(=O)c1cccc2ccccc12 | > 100 µM |  |
| O=c1[nH]c(SCc2ccccc2[N+](=O)[O-])nc2nc[nH]c12 | > 100 µM | > 100 µM and 40.4 µM |
| COc1ccc(C(=C2C(=O)N(c3ccccc3)C(=O)C2=C(C)C)c2ccc(OC)cc2)cc1 | > 61.3 µM |  |
| CCCCCC1=C2C(c3ccc(OC)cc3)=C(N)C(c3ccc(OC)cc3)=C3NC(=O)C(C=C1)C32 (stereo not drawn) | > 100 µM |  |
| COC(=O)CCC(NC(=O)OC(C)(C)C)C(=O)NC(Cc1ccc([N+](=O)[O-])cc1)C(=O)NC(CCC(=O)OC)C(=O)OC (stereo not drawn) (Boc-Glu(OMe)-[Phe(4-NO2)]-Glu(OMe)-OMe; configuration not given here) | > 100 µM |  |
| CC1CC(c2ccc(Cl)c(Cl)c2)=Nc2ccccc2S1 (stereo not drawn) | > 100 µM |  |
| c1cc2c(c(NC3=NCCN3)c1)CCCC2 | > 100 µM |  |
| Fc1ccc(-c2nn3c(COc4ccc(Cl)cc4Cl)nnc3s2)cc1Oc1ccccc1 | 35.9 µM | 16 µM |
| Cc1[nH]n(-c2cccc(Cl)c2)c(=O)c1/C=C1\C=c2ccccc2=CC1=O | > 100 µM | > 100 µM |
| COc1cccc(/C=C\c2ccnc3ccccc23)c1 | > 10 µM |  |
| Cc1ccc(/C=C2\NC(=S)N(CN3CCCCC3)C2=O)cc1 | > 100 µM |  |
| O=C(NC1C(=O)NNC1c1ccccc1Cl)c1ccccc1 (stereo not drawn) | > 100 µM |  |
| O=c1oc2c/c(=C\c3ccccn3)c(=O)c3cccc1c3-2 | > 100 µM |  |
| Cc1ccc2nc3c(C)cc(=O)cc-3sc2c1 | > 100 µM |  |
| COC(=O)/C=C(\C)CC/C=C(\C)CCC(O)C(C)(C)O (stereo not drawn) | > 100 µM |  |
| Cc1cccc(/C=N/NC(=S)N(C)CCc2ccccn2)n1 | > 100 µM |  |
| COc1cc(NC(C)CCCN2C(=O)c3ccccc3C2=O)c2ncccc2c1OC (stereo not drawn) | > 100 µM | > 100 µM |
| CCCCCCC1CC(=O)C1(Cl)Cl (stereo not drawn) | > 100 µM |  |
| CCCCCCSc1nc(COC(=O)NC)c(COC(=O)NC)n1C | > 100 µM |  |
| COc1cc([N+](=O)[O-])ccc1NC(=O)c1cccc([N+](=O)[O-])c1O | 73.8 µM |  |
| O=C(c1ccco1)c1c(C(F)(F)F)n([O-])c2ccc(F)cc2[n+]1=O | 19.9 µM | 6.05 µM |
| CC12CC(=O)C3C(CCC4=CC(=O)CCC43C)C1CC=C2CC(=O)O (stereo not drawn) | > 100 µM |  |
| CS(=O)(=O)OCCN(CCOS(C)(=O)=O)c1ccc(/C=N/Nc2ncnc3nc[nH]c23)cc1 | 55.6 µM |  |
| N#Cc1ccc(/C=C/C(=O)c2ccccc2)cc1 | 39.2 µM and 29.4 µM | 18.3 µM and 15.1 µM |
| CCSc1nnc(-c2ccccc2)nc1Cc1ccc(OC)cc1 | > 100 µM |  |
| COC(=O)N/N=C(/c1nc2ccc([N+](=O)[O-])cc2[nH]c1=O)C(O)c1ccc(OC)c(OC)c1 (stereo not drawn) | > 100 µM |  |

| SMILES | TGI | GI50 |
| --- | --- | --- |
| CNC(C)Cc1ccccc1OC (stereo not drawn) | > 100 µM |  |
| COC1=CC2CCN3Cc4cc5c(cc4C(C1O)C23)OCC5 (stereo not drawn) | 15.6 µM | 2.54 µM |
| NNc1ncc2c(n1)-c1ccccc1OC2 | > 100 µM |  |
| CC(=O)Oc1ccc(/C=C/C(=O)OCCOC(=O)/C=C/c2ccc(OC(C)=O)c(OC(C)=O)c2)cc1OC(C)=O | > 71.1 µM |  |
| COc1cc(/C=C/c2cc(O)c(C/C=C(\C)CC/C=C(\C)CO)c(O)c2)cc2c1O[C@]1(C)CC[C@@H](O)C(C)(C)[C@H]1C2 | > 100 µM |  |
| NCCNCCCNC(=O)c1cc(-c2ccccc2)nc2ccccc12 | > 100 µM |  |
| O=C(O)c1nc2ccccc2nc1NCc1ccc(F)cc1 | > 100 µM |  |
| Cn1cnc2c1c(=O)n(CCNCCO)c(=O)n2C | > 100 µM |  |
| CC1(C)OC(=O)C(=Cc2ccc([N+](=O)[O-])s2)C(=O)O1 | > 100 µM |  |
| C=C(C)CC(C)(c1cc2ccccc2n1C)N1CCOCC1 (stereo not drawn) | > 100 µM |  |
| N#CC1=C(N)OC(c2cccc([N+](=O)[O-])c2)C1(C#N)C#N (stereo not drawn) | 30.8 µM |  |
| Cc1c/c(=N/NC(=O)c2ccncc2)n2nc(N)sc2n1 | > 100 µM |  |
| COc1cc(NC(=O)c2ccccc2Nc2ccnc(C(F)(F)F)c2)cc(OC)c1OC | > 100 µM | > 100 µM |
| N[C@@H](CSSC[C@H](N)C(=O)N1CCn2cc(-c3ccccc3)nc2[C@@H]1CC1CCCCC1)C(=O)N1CCn2cc(-c3ccccc3)nc2[C@@H]1CC1CCCCC1 | 5 µM | 1.83 µM |
| CC(=O)C(C=O)C(C)=O.CC(=O)CC(C)=O.CC(=O)CC(C)=O.[Ru] | 60.1 µM | 18.3 µM |
| COc1ccc(-c2nc3sccn3c2-c2ccnc(NCCCNS(=O)(=O)c3ccc(F)cc3)n2)cc1 | > 100 µM | 3.69 µM |
| Nc1ccc(C(=O)Nc2ccccc2N)cc1 | > 100 µM |  |
| CNCCN(C)Cc1cn[nH]c1-c1ccc(OC2CC(OCCC3CCOCC3)C2)cc1 (stereo not drawn) | > 100 µM | > 100 µM |
| O=C1N=C(Nc2nc(-c3csc(NC4=NC(=O)/C(=C\c5ccc(Cl)cc5)S4)n3)cs2)S/C1=C/c1ccc(Cl)cc1 | 23.3 µM | 7.78 µM |
| COC(=O)c1ccccc1C1=C([N+](=O)[O-])C(c2cccc(Br)c2)C(C#N)=C(N)O1 (stereo not drawn) | > 100 µM |  |
| COC(=O)N/N=C(\c1ccccc1)c1ccc(OC)cc1 | > 100 µM |  |
| NCCNCCNc1ccc(NCCNCCN)c2c1C(=O)c1c(O)ccc(O)c1C2=O | > 100 µM |  |
| COc1ccc(/C=C2\N=C(c3ccccc3)OC2=O)cc1OC(C)=O | > 100 µM |  |
| CS(=O)(=O)N1CCc2c(-c3cnc(N)nc3)nc(N3CCOCC3)nc21 | > 8.14 µM and 8.65 µM | 0.389 µM and 0.57 µM |
| COC(=O)C1(O)c2ccccc2N=C2C1CCN2C (stereo not drawn) | > 100 µM |  |
| C=C1C(=O)C2(C)OC2(C)C1C(=O)O (stereo not drawn) | > 100 µM |  |
| CC(=O)NC(CCCNC(=O)OCc1ccccc1)C(=O)O (stereo not drawn) | > 100 µM |  |
